{"source": "ChEMBL document CHEMBL4888484", "about": "“Replenishing the malaria drug discovery pipeline: Screening and hit evaluation of the MMV Hit Generation Library 1 (HGL1) against asexual blood stage Plasmodium falciparum ,using a nano luciferase reporter read-out” (2022)", "note": "The whole screen tested about 150,000 compounds, of which about 540 (0.36%) showed an effect of 50% or more. This is one part of the list."}
{"test_system": "Plasmodium falciparum", "test": "Primary screen in NF54 nanoGlo assay, in single point, at 2uM, 72h; a lower Z score goes with more inhibition", "type": "functional, Erythrocyte", "conditions": "timepoint 72 hour", "units": {"% Inhibition": "%"}}
{"smiles": "c1ccc2nc(NCCc3cn([C@H]4CCOC4)nn3)cnc2c1", "% Inhibition": -7, "Z score": 0.84}
{"smiles": "CN1CCN(c2ccc(C(=O)O)s2)c2ccccc21", "% Inhibition": -5, "Z score": 1.03}
{"smiles": "CC[C@H](O)Cn1nc(Cc2ccccc2OC)nc1-c1ccc(C)n1C", "% Inhibition": -3, "Z score": 0.62}
{"smiles": "CCCn1nc(C2CC2)nc1[C@H](C)Oc1cccc(Cl)c1", "% Inhibition": -12, "Z score": 1.14}
{"smiles": "Cc1ccc2c(c1C)OC1(CCN([C@@H](C)C(=O)N3CCCC3)CC1)CC2=O", "% Inhibition": 4, "Z score": -0.51}
{"smiles": "C[C@H](O)c1cnc(CN(C)C(C2CC2)C2CC2)s1", "% Inhibition": -3, "Z score": 0.65}
{"smiles": "Cc1nc(C)c(CC(=O)N[C@@H]2COC3(CCCC3)C2)c(=O)[nH]1", "% Inhibition": 11, "Z score": -1.46}
{"smiles": "O=C(COc1ccccc1F)Nc1ccc(O[C@H]2CCOC2)cc1", "% Inhibition": -11, "Z score": 1.23}
{"smiles": "CC(C)(C)NS(=O)(=O)c1cnc(NC(=O)[C@H]2CCCO2)s1", "% Inhibition": -4, "Z score": 0.56}
{"smiles": "CC(C)[C@@H](CO)NC(=O)C(O)C1COC(C)(C)O1", "note": "(stereo partly drawn)", "% Inhibition": 0, "Z score": 0}
{"smiles": "O=C(NCC1CCC(C(F)(F)F)CC1)c1cc2n(n1)CCCO2", "note": "(stereo not drawn)", "% Inhibition": -12, "Z score": 1.39}
{"smiles": "O=S(=O)(c1cnc(C2OCCO2)s1)N1CCCC2CC21", "note": "(stereo not drawn)", "% Inhibition": -10, "Z score": 1.7}
{"smiles": "FC(F)(F)c1csc(Cn2cnc3c2CCNC32CCOCC2)n1", "% Inhibition": -5, "Z score": 0.75}
{"smiles": "COc1ccc(Cl)cc1-c1ccccc1CN1CCNCC1", "% Inhibition": -12, "Z score": 1.21}
{"smiles": "Cn1cnc2cc(C(=O)O)c(Nc3ccc(Br)cc3Cl)c(F)c21", "% Inhibition": -12, "Z score": 1.65}
{"smiles": "COc1ccc(-c2ccc(C(=O)N3CCO[C@H](C(=O)O)C3)c(F)c2)c(F)c1", "% Inhibition": 2, "Z score": -0.37}
{"smiles": "c1cn(CCCOc2ccc(CN3CCOCC3)cc2)cn1", "% Inhibition": -9, "Z score": 1.57}
{"smiles": "COc1nc(C)ccc1CN=C(N)NCc1ccccc1", "% Inhibition": 2, "Z score": -0.21}
{"smiles": "CCN(CC(=O)Nc1ccc(C)cc1Cl)C[C@H]1CCOC1", "% Inhibition": -7, "Z score": 0.97}
{"smiles": "Cc1ccc(CN2CC[C@H](c3nnc(-c4ccc(N(C)C)cc4)o3)C2)o1", "% Inhibition": 29, "Z score": -3.26}
{"smiles": "Cc1noc(C)c1C[C@H](C)NC(=O)NCCCOc1ccc(F)cc1", "% Inhibition": -7, "Z score": 1.27}
{"smiles": "C=CCN=C(NCCc1ccn(C(C)C)n1)NCC(C)C", "% Inhibition": 13, "Z score": -1.6}
{"smiles": "CN(C)Cc1cc(NC(=O)N(C)Cc2cccc(=O)[nH]2)ccn1", "% Inhibition": 6, "Z score": -1.27}
{"smiles": "Cc1nn(C)cc1CN1CCOc2ccccc21", "% Inhibition": -2, "Z score": 0.14}
{"smiles": "COc1ccc(CN2CCn3nc(C(=O)N4CCN(Cc5ccccc5)CC4)cc3C2=O)cc1", "% Inhibition": -12, "Z score": 1.42}
{"smiles": "Cc1cc(C)nc(N2CCC(Oc3ccc4ncccc4c3)(C(=O)O)CC2)n1", "% Inhibition": -1, "Z score": 0.08}
{"smiles": "Cc1noc(-c2ccc(C)c(NC(=O)c3ccc(Br)c(S(=O)(=O)N(C)C)c3)c2)n1", "% Inhibition": 2, "Z score": -0.41}
{"smiles": "Cc1ccccc1C(C(C)Nc1cccc(C(=O)O)n1)N(C)C", "note": "(stereo not drawn)", "% Inhibition": -5, "Z score": 0.44}
{"smiles": "COc1ccccc1NC(=O)N1CC[C@@H](CO)N(C)c2cccnc2C1", "% Inhibition": -2, "Z score": 0.34}
{"smiles": "CCOC(=O)c1c(S(=O)(=O)N2CCC[C@H](C(=O)Nc3cccc(C)c3C)C2)c(C)n(C)c1C", "% Inhibition": -12, "Z score": 1.11}
{"smiles": "O=C(CS(=O)(=O)C1CCCC1)N[C@H](c1ccc(F)cc1)c1ncc[nH]1", "% Inhibition": -19, "Z score": 2.08}
{"smiles": "Cc1cccc(-c2nc(C)c(-c3cc(C(=O)N4CCc5ccccc5C4)[nH]n3)s2)c1", "% Inhibition": 2, "Z score": -0.32}
{"smiles": "Cc1cnc(C(C)(C)NCC(=O)NCc2ccco2)s1", "% Inhibition": 3, "Z score": -0.33}
{"smiles": "COc1cc(N2CCn3c(nc4cc(Cl)ccc43)C2)ccc1NC(=O)c1ccccc1OC", "% Inhibition": 32, "Z score": -4.38}
{"smiles": "Cn1c(C(=O)NC(C)(C)C)cc2c1CCN(Cc1cccc(F)c1)C2", "% Inhibition": -19, "Z score": 2.57}
{"smiles": "O=C(NC1CCCCCC1)c1cc2c(s1)CCCCC2", "% Inhibition": 7, "Z score": -0.87}
{"smiles": "Cc1cnc(N2C[C@H](CO)[C@@H](CO)C2)nc1N(C)C", "% Inhibition": -3, "Z score": 0.48}
{"smiles": "CCn1cc(C(=O)Nc2ccc(Cl)c(C(F)(F)F)c2)cn1", "% Inhibition": 16, "Z score": -2.82}
{"smiles": "Cc1cc(=O)cc(C(=O)NC2(CN3CCCCC3)CC2)[nH]1", "% Inhibition": -19, "Z score": 2.42}
{"smiles": "Cc1ccsc1COc1cnccn1", "% Inhibition": -13, "Z score": 1.62}
{"smiles": "CCn1cc(OCCN2CCCCC2)cn1", "% Inhibition": -6, "Z score": 0.75}
{"smiles": "CCOCCCNC(=O)C1CCN(c2nc3ccccc3n(Cc3ccccc3)c2=O)CC1", "% Inhibition": -4, "Z score": 0.64}
{"smiles": "O=C(N[C@H]1CCCS(=O)(=O)C1)c1ccc(C(F)(F)F)c(=O)[nH]1", "% Inhibition": -1, "Z score": 0.16}
{"smiles": "CC(C)CN(CC(N)=O)c1ccc(C(F)(F)F)cn1", "% Inhibition": 6, "Z score": -0.78}
{"smiles": "CC[C@H](C)c1nc(NC2CCC(NC(=O)c3cccs3)CC2)c2cnn(-c3ccccc3Cl)c2n1", "note": "(stereo partly drawn)", "% Inhibition": -10, "Z score": 1.39}
{"smiles": "Cn1cc(C2C[S+]([O-])CCN2C(=O)CCc2ccsc2)cn1", "note": "(stereo not drawn)", "% Inhibition": -12, "Z score": 1.28}
{"smiles": "O=C(CCC1CCN(C(=O)Cc2ccccc2F)CC1)Nc1ccc2c(c1)OCCO2", "% Inhibition": -1, "Z score": 0.14}
{"smiles": "CCC(NC(=O)Nc1ccc(Br)cc1Br)(C(F)(F)F)C(F)(F)F", "% Inhibition": 1, "Z score": -0.09}
{"smiles": "COC(=O)c1ncn(CN2CCN(Cc3ccc(OC)cc3)CC2)n1", "% Inhibition": -12, "Z score": 1.59}
{"smiles": "COC(=O)[C@@H]1CCCN1C(=O)c1cc(C)sn1", "% Inhibition": -6, "Z score": 0.93}
{"smiles": "COC(=O)N1CCCC[C@H](NC(=O)CCCc2nc(-c3ccccc3C)no2)C1", "% Inhibition": 5, "Z score": -0.71}
{"smiles": "Cc1cc(CN(C)C(=O)c2cccc(-c3cc(C)nc(C)c3)c2)on1", "% Inhibition": -10, "Z score": 1.21}
{"smiles": "C[C@H]1CCC(=O)N1c1ccc(NC(=O)c2cc(C#N)cn2C)cc1", "% Inhibition": -6, "Z score": 1.16}
{"smiles": "COc1ccccc1CC(=O)Nc1ccc2[nH]c(=O)[nH]c2c1", "% Inhibition": -3, "Z score": 0.47}
